Test results as given in the RNAGym collection of RNA variant scans (doi:10.7554/elife.90254).
The source gives no read counts; variants with many changes may rest on few reads.

B1: LINE1-mini (parent)
chain: GGCAGAGCUCAACACAGCGUGGCAAAGUGGCUGUGGCUAGACUGCC

Variants of: B1
Assay: self-cleavage, relative activity (ratio to wild type); higher = more cleavage; in vitro, sequencing; the parent is a self-cleaving ribozyme

Variant | self-cleavage
GGCAGAGCCCAACGCAGCGUGGCAAAGUGGCUGUCGCUAGCCUGCC [U9C A14G G35C A41C] | 0.01
GGCAGAGCCCAACGCAGCGUGGCAACGUGGCUGUGGCUAGACUGCC [U9C A14G A26C] | 0.01
GGCAGAGCCCAACUCAGCGUGGCCAAGUGGGUGUGGCUAGACUGCC [U9C A14U A24C C31G] | 0.01
GGCAGAGCACAACACAGCGCGGCAAAGUGGGUGUGGCUAGACUGGU [U9A U20C C31G C45G C46U] | 0.07
GGCAGAGCCCAACUCAGCGUGGCACAGUAGUUGUGGCUAGACUGCC [U9C A14U A25C G29A C31U] | 0.03
GGCAGAGCCCAUCACAUCAGGGCAAAGUGGCUGUGGCUAGACUGCC [U9C A12U G17U G19A U20G] | 0.04
GGCAGAGCCCAGCACCGCGUGGCAAAGUGGCUGUGCCUAGACUGCC [U9C A12G A16C G36C] | 0.01
GGCAGAGCCCAACCCAGCGUGGCAAAGUGGCUGUGGAUAGACUGCC [U9C A14C C37A] | 0.03
GGCAGAGCCCUAUACAGCGUGGCAAAGUGGCUGUGGCUAGACUGCC [U9C A11U C13U] | 0.05
GGCAGAGCCCAUCACAGCGCGGCAAAGUGAAUGUGGCUAUACUGCU [U9C A12U U20C G30A C31A G40U C46U] | 0
GGCAGAGCCCAACCCACCGUGGCAAACUGGCUGUGGCUAGACUGCC [U9C A14C G17C G27C] | 0.04
GGCAGAGCACAACACAGCGUGGCAAAGCGGCUUUGGCUACACGGCC [U9A U28C G33U G40C U43G] | 0.02
GGCAGAGCCCCACACACCGAGGCAAAGUGGCUGUGACUAGACUACC [U9C A11C G17C U20A G36A G44A] | 0.01
GGCAGAGCCCACCACAGCUUGGCAAAGUGGCUGUGGCUAGUCUGCC [U9C A12C G19U A41U] | 0.03
GGCAGAGCCCGAAACAGCGUGGCAAAGUUGCUGUGGCUUGAAUGCC [U9C A11G C13A G29U A39U C42A] | 0.01
GGCAGAGCCCAGCACAGCGUGGCAAAGUGGCUGUGGCUAGACUGAC [U9C A12G C45A] | 0.04
GGCAGAGCCCAACCCAGCGUGGCAAAAUGGCUGUGGCUAGACUGCC [U9C A14C G27A] | 0.03
GGCAGAGCCCCACACAGUGUGGCAAAGUGGCUUUGGCUAGACUGCC [U9C A11C C18U G33U] | 0.04
GGCAGAGCCCAGCACAGCGUGGCAAAGUGACUGUGGCUAGUCUGCC [U9C A12G G30A A41U] | 0

Variant | self-cleavage
GGCAGAGCACAACACAGCGUGGCAAAGUGGCUGGGGCUAUACUGCC [U9A U34G G40U] | 0.02
GGCAGAGCCCCACACAGCGUGGCAAAGUGGCUGCGGCUAGACUGCA [U9C A11C U34C C46A] | 0
GGCAGAGCCCGGCACAGCGUGCCAAAGUGGCUGUGGCAAGACUGCC [U9C A11G A12G G22C U38A] | 0
GGCAGAGCACAACACAGCGUGGCAAAGUGGCUGAGCCUAGACUGCC [U9A U34A G36C] | 0.09
GGCAGAGCACAACACAGCGUGGCAAAGUGGCUGAAGCUAGACUGCC [U9A U34A G35A] | 0.11
GGCAGAGCACAACACAGCGCGGCAAAGUGGCUGUGGCUGGACUGCC [U9A U20C A39G] | 0
GGCAGAGCACAACACAGCGUGGCAAAGUGGCAGUAGCUAGACUUCC [U9A U32A G35A G44U] | 0.12
GGCAGAGCCCUACACAGCGUGGCAAAGUGGAUGUGCCUAGACUGCC [U9C A11U C31A G36C] | 0.02
GGCAGAGCCCCAUACAGCAUGGUAAAGUGGCUGUGGCACGACUGCC [U9C A11C C13U G19A C23U U38A A39C] | 0
GGCAGAGCCCAUCACAGCGUGGCUAAGUGGCUGUGGCUAGACUGCC [U9C A12U A24U] | 0.04
GGCAGAGCACAACACAGCGUGGCAAAGCGGGCGUGGCUAGACUGCC [U9A U28C C31G U32C] | 0.12
GGCAGAGCCCGACACAGAGUGGCAACGUGGCUGUGGCUAGACUGCC [U9C A11G C18A A26C] | 0.01
GGCAGAGCCCACCACAGCGUGGCAAAUUGGCUGUGGCUAGACUGCC [U9C A12C G27U] | 0.01
GGCAGAGCCCUACACAGCGUGGCAAAGUGGCUGUGACUACACUGCC [U9C A11U G36A G40C] | 0
GGCAGAGCCCCACACAGCGUGGCAAAGUGGCUGUGGCUAUACUGCC [U9C A11C G40U] | 0
GGCAGAGCACAACACAGCGCGGCAAAGUGGCCGUGGCUAGACUGCC [U9A U20C U32C] | 0.52
GGCAGAGCACAACACAGCGGGGCAAAGUGGCUGCGGCUAGACUGUC [U9A U20G U34C C45U] | 0.09
GGCAGAGCCCACGACAGCCUGGCAAAGUGGCUGUGGCUAAGCUGCC [U9C A12C C13G G19C G40A A41G] | 0
GGCAGAGCCCACCACACCGUGGUUAUGUGGUUGUGGUUAGGCUGCC [U9C A12C G17C C23U A24U A26U C31U C37U A41G] | 0

Variant | self-cleavage
GGCAGAGCACAACACAGCGGGGCAAAGUGGCUAUGGUUAGACUGCC [U9A U20G G33A C37U] | 0.06
GGCAGAGCCCAGCACAGCGUGACAAAGUGGCUUUGGCUAGACUGUC [U9C A12G G22A G33U C45U] | 0.01
GGCAGAGCACAACACAGCGUGGCAAAGUGGCUGCGGAUAGACUGCC [U9A U34C C37A] | 0.09
GGCAGAGCCCUACACAACGUGGCAGAGUGGCUGUGGUUAGACUGCC [U9C A11U G17A A25G C37U] | 0.01
GGCAGAGCACAACACAGCGUGGCAAAGGGGCUGUGGCUAGACUGCA [U9A U28G C46A] | 0.11
GGCAGAGCACAACACAGCGAGGCAAACUGGCUGUGGCUAGACUGCC [U9A U20A G27C] | 0.07
GGCAGAGCCCAUGACAGCGUGGCAAAGUGGCUGUGGCUUGACUGCC [U9C A12U C13G A39U] | 0.02
GGCAGAGCCCAACGCAGCGUGGCAAAGUGGCUGUGGCUACACCGCC [U9C A14G G40C U43C] | 0.03
GGCAGAGCCCACCACAGCGUGGCAAAGUGGCUGUGGCUAUACUGCC [U9C A12C G40U] | 0.03
GGCAGAGCCCAACGCAGCGUGACAAAGUGCCUGAGUCUUGACUGCC [U9C A14G G22A G30C U34A G36U A39U] | 0
GGCAGAGCACAACACAGCGUGGCAAAGGGUCUGUGGCUAGACUGCC [U9A U28G G30U] | 0.11
GGCAGAGCCCAACGCAGCGUGGCAAAGUGGCUUUGGCUAGACUGCC [U9C A14G G33U] | 0.03
GGCAGAGCACAACACAGCGCGGCAAAGUGGCUGUGCCUAGACUGCC [U9A U20C G36C] | 0.03
GGCAGAGCCCAUCACAGCGUGGCAAAGUGGCUGUGGCUAGGCUGCC [U9C A12U A41G] | 0.02
GGCAGAGCACAACACAGCGGGGCAAAGUGGCUGUGGCUAGAGUGCC [U9A U20G C42G] | 0.05
GGCAGAGCCCAGCACAGCGUGGCAAAGUGGCUGUGGCUCGACUGCC [U9C A12G A39C] | 0.01
GGCAGAGCACAACACAGCGGGGCAAAGUGGCUGUGGCUAUACUGCC [U9A U20G G40U] | 0.12
GGCAGAGCCCAACGCAGCGUGGCAAAGUGGCUGGGGCUAGACUGCC [U9C A14G U34G] | 0
